Measurements as given in PubChem BioAssay AID651820 (National Center for Advancing Translational Sciences (NCATS), 2012).
Where “and” joins values, the source holds several entries; their conditions need not be identical. Equal entries are not always repeated. Among all 340,000 compounds or so, about 12,000 (3.5%) were called active. The inconclusive results got no clear call from the source; some entries with a clear call stand among them for comparison. The call rests on the fitted dose curve; in most records, active means well fitted inhibition curve with a large enough effect; inconclusive means small, poorly fitted or top-dose-only effect, or another doubt; inactive means no such curve, though single readings can be large or run the other way. Potencies beside an inconclusive call are fits to weak or partial responses and may not hold up.

test: qHTS Assay for Inhibitors of Hepatitis C Virus (HCV); conditions: Huh7.5.1 HCVcc-Cre (HCVcc is cell-culture hepatitis C virus) infection, luciferase reporter, 44 h; activity change, negative = inhibition: at 41.8 µM (top of the series) unless noted
Method in brief: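 1,000 cells/well; 4 h culture; + compound; + HCVcc-Cre (~0.5 moi); 44 h; luciferase substrate, RT 15 min; read 15 sec.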
On the % scale 0 is the no-effect control and ±100 the full control effect; potency means the concentration at half of the fitted maximal effect; tags describe the fitted curve by direction and shape.

Compound	Potency	activity change, negative = inhibition
COc1ccc(-c2noc(CN(C(=O)c3ccc4c(c3)OCO4)C(C)C)n2)cc1	inconclusive: 31.6 µM [inhibitor, single point]	
CCCOc1ccccc1OCC(=O)Nc1ccc(S(=O)(=O)N2CCCC2)cc1	active: 10 µM	
COc1cc(OC)cc(C(=O)N[C@H](C(=O)NC2=NCCS2)C(C)C)c1	inconclusive: 11.2 µM [inhibitor, partial curve]	
Cn1c(=O)c2c(ncn2Cc2nnc(N)s2)n(C)c1=O		inactive: 18%
Cc1cccc(-c2nnc(SCC(=O)N3CCOCC3)o2)c1		inactive: 4.21%
Cc1nc(N)nc(N)c1-c1ccc(Cl)c(Cl)c1	inconclusive: 2 µM [inhibitor, single point]	
O=c1c2ccccc2oc2cc(-c3ccc4[nH]ccc4c3)ccc12	inconclusive: 5.62 µM [inhibitor, full curve]	
Cc1nn(-c2ccccc2)c(N2CCCC2)c1/C=N/NC(=O)c1ccccc1O	inconclusive: 1.12 µM [inhibitor, full curve]	
CC1=NNC(=O)/C1=C\c1cn(-c2ccccc2)nc1-c1ccccc1	active: 11.2 µM	
O=C(NCc1ccccc1)C1=C[C@H](c2csc3ccccc23)C[C@H](OCc2ccc(CO)cc2)O1	inconclusive: 31.6 µM [inhibitor, single point]	
O=C1ON=C(c2ccccc2)/C1=C/c1cccnc1		inactive: 21.6%
CCn1c(NC(=O)Nc2cccc(C)c2C)cc2sccc21		inactive: -10.5%
Cc1sc(NC(=O)C2CSC3(C)CCC(=O)N23)nc1-c1ccc(F)cc1 (centres undefined)	active: 14.1 µM	
Cc1c(Br)c([N+](=O)[O-])nn1CC(=O)Nc1sc2c(c1C(=O)OC(C)C)CCC(C)C2 (centres undefined)	inconclusive: 2.24 µM [inhibitor, full curve]	
Cc1ccc(-n2nc3c(c2NC(=O)/C=C\c2ccc4c(c2)OCO4)CSC3)c(C)c1	inconclusive: 8.91 µM [inhibitor, partial curve]	
COc1cccc(C(=O)NCCS(=O)(=O)NCc2ccco2)c1		inactive: -1.27%
CC(=O)c1c(C)[nH]c(C(=O)OCC(=O)Nc2c(C)cccc2C)c1C	inconclusive: 22.4 µM [inhibitor, single point]	
O=C1CC(c2cc(F)ccc2F)c2cc3c(cc2N1)CCC3 (centres undefined)	inconclusive: 3.55 µM [inhibitor, single point]	
CNc1ccccc1-c1nc2ccccc2n(C)c1=O	inconclusive: 31.6 µM [inhibitor, single point]	
Cc1noc(C)c1S(=O)(=O)N(C)C[C@H]1Oc2c(NC(=O)NC(C)C)cccc2C(=O)N([C@H](C)CO)C[C@@H]1C		inactive: -1.08%
Clc1ccc(Cn2nnc(-c3ccccc3)n2)cc1		inactive: -5.15%
O=C(Cc1cccs1)NCCSc1c(-c2ccc(Cl)cc2)[nH]c2ccccc12	active: 12.6 µM	
O=C(/C=C/c1ccco1)Nc1ccc(S(=O)(=O)N2CCOCC2)cc1	active: 3.55 µM	

Compound	Potency	activity change, negative = inhibition
CCOc1ccc(-c2noc(-c3ccncc3)n2)cc1OCC	inconclusive: 2.82 µM [inhibitor, partial curve]	
CCCCC[n+]1cccc2c3ccccc3ccc21	inconclusive: 15.8 µM [inhibitor, partial curve, poor fit]	
COc1ccccc1CNC(=O)C(=O)NCCC1CCCCN1S(=O)(=O)c1cccs1 (centres undefined)	active: 11.2 µM	
COc1ccc(/C(O)=C2/C(=O)C(=O)N(Cc3cccnc3)C2c2ccccn2)cc1 (centres undefined)	inactive and inconclusive: 3.16 µM [inhibitor, partial curve]	
Cc1onc(-c2ccccc2)c1CNC(=O)Nc1ccc(F)cc1F	inconclusive: 11.2 µM [inhibitor, single point]	
O=C1C=C(N2CCN(c3ccccn3)CC2)C(=O)c2c(O)ccc(O)c21	inconclusive: 10 µM [inhibitor, partial curve]	
Cc1cccc(NC(=S)N(C)Cc2cn(C)c3ccccc23)c1		inactive: -25.4%
CCC(NC(=O)c1ccc2nc(Cc3ccc(OC)cc3)oc2c1)c1ccncc1 (centres undefined)		inactive: -6.64%
O=C(COc1ccccc1[N+](=O)[O-])Nc1ccccc1N1CCCCC1	inconclusive: 22.4 µM [inhibitor, single point]	
COc1ccc(C(C)(C)C)cc1NC(=O)COc1ccc(-c2nnco2)cc1	inconclusive: 2.24 µM [inhibitor, partial curve]	
O=C(CC1C(=O)N(c2ccccc2)C(=S)N1c1ccccc1)c1ccccc1 (centres undefined)	inconclusive: 35.5 µM [inhibitor, single point]	
C[N+](C)(C)CCCN(Cc1ccc2c(c1)OCO2)C(=O)NC1CCCCC1	active: 3.16 µM	
Cc1onc(-c2cccc(Cl)c2Cl)c1C(=O)O/N=C(\N)c1ccc([N+](=O)[O-])o1		inconclusive: -39.3% [inhibitor]
CCCCCCCC(=O)Nc1cc(C(=O)NCCC)ccc1N1CCC2(CC1)CC(c1cccc(Br)c1)=NO2		inactive: -4.42%
CCOC(=O)C(=CNc1ccc(-c2ccco2)c(Cl)c1)C(=O)OCC	inconclusive: 10 µM [inhibitor, partial curve]	
CCOC(=O)Nc1ccc2c3c(cccc13)-c1ccccc1-2	active: 10 µM	
COC(=O)C(C(C)=O)C1=C/C(=N\S(=O)(=O)c2ccc(C)cc2)c2ccccc2C1=O (centres undefined)	inconclusive: 31.6 µM [inhibitor, single point]	
CC(Oc1cccc(Cl)c1)C(=O)Nc1ccc(S(=O)(=O)N(C)C2CCN(C)CC2)cc1 (centres undefined)	inconclusive: 35.5 µM [inhibitor, partial curve, poor fit]	
COc1ccccc1-c1cc(C(F)(F)F)nc(S(=O)(=O)CCCC(=O)Nc2cccnc2Cl)n1	inconclusive: 31.6 µM [inhibitor, single point]	
CCOC(=O)c1ccc(N(C(=O)CNC(=O)c2ccco2)C(C(=O)NCC2CCCO2)c2ccc(OC)c(OC)c2)cc1 (centres undefined)		inactive: -2.5%
O=C(c1ccc(-c2ccccc2)cc1)N1CCN(c2ccccc2F)CC1		inactive: -13.7%
CCCn1c(C)cc(C(=O)CSc2nc3ccccc3c(=O)n2Cc2ccco2)c1C	inconclusive: 31.6 µM [inhibitor, single point]	
O=c1c(-c2ccc3c(c2)OCCO3)coc2c(CN3CCOCC3)c(O)ccc12		inactive: -10.1%

Compound	Potency	activity change, negative = inhibition
Cc1ccc(-n2c(SCC(=O)N3CCOCC3)nnc2-c2ccncc2)cc1		inactive: 5.69%
CCN1CCN(C(=S)Nc2ccc(Cl)cc2Cl)CC1	inconclusive: 31.6 µM [inhibitor, single point]	
Cc1onc(-c2ccccc2Cl)c1C(=O)Nc1cnn(Cc2ccccc2)c1	inconclusive: 31.6 µM [inhibitor, single point]	
Oc1ccc(Cl)cc1Sc1cc(Cl)ccc1O	inconclusive: 31.6 µM [inhibitor, single point]	
CCCC(Oc1ccc(Br)cc1)c1nc2c3cc(OC)c(OC)cc3nc(=S)n2[nH]1 (centres undefined)	inconclusive: 31.6 µM [inhibitor, single point]	
CCOC(=O)c1sc(Nc2ccc(C)cc2C)nc1C	inconclusive: 25.1 µM [inhibitor, single point]	
CC(=O)c1cccc(NC(=O)C(Sc2ncnc3ccccc23)c2ccccc2)c1 (centres undefined)	inconclusive: 7.94 µM [inhibitor, partial curve]	
C/C(=N\NC(=O)Cn1nc(C)cc1C)c1ccc([N+](=O)[O-])cc1		inactive: 13.9%
N#Cc1sc2nc(-c3cccs3)cc(-c3ccccc3)c2c1N	inconclusive: 0.562 µM [inhibitor, full curve]	
Cc1ccccc1OCC(O)Cn1c(=N)n(CCN2CCOCC2)c2ccccc21 (centres undefined)	inactive and inconclusive: 5.62 µM [inhibitor, full curve, poor fit]	
Cc1ccc(OCC(=O)c2cc(C)n(-c3cc(C)on3)c2C)c([N+](=O)[O-])n1	inconclusive: 1.78 µM [inhibitor, full curve, poor fit]	
O=C(N/N=C/c1ccccc1O)C1CC(=O)N(c2ccc(F)cc2)C1 (centres undefined)	inconclusive: 31.6 µM [inhibitor, single point]	
CCOC(=O)c1cccc(NC(=O)CS(=O)(=O)Cc2nc(-c3cccc(OC)c3)oc2C)c1	inconclusive: 2.24 µM [inhibitor, single point]	
Cc1nc(SCC(=O)N(CC(C)C)C2CCS(=O)(=O)C2)c(C#N)c(C)c1C (centres undefined)	inconclusive: 5.01 µM [inhibitor, partial curve]	
CCNc1ccc(C(=O)N/N=C/c2c(C)nn(-c3ccccc3)c2N2CCCC2)cc1[N+](=O)[O-]	inconclusive: 6.31 µM [inhibitor, partial curve, poor fit]	
COc1ccc(/C=C/c2nc(N)nc(-c3ccccc3O)n2)cc1OC	inconclusive: 31.6 µM [inhibitor, single point]	
Cc1sc(NC(=O)c2cccs2)nc1-c1ccccc1	inconclusive: 12.6 µM [inhibitor, single point]	
NC(=O)C1(N2CCCCC2)CCN(C(=O)CSc2nc(C(F)(F)F)cc(=O)[nH]2)CC1		inactive: 12.2%
O=C(O)CC12CC3CC(C1)CC(n1cncn1)(C3)C2		inactive: 6.27%
CC1(C)N=C(SCC(=O)Nc2ccc(Cl)cc2)C(c2ccccc2)=N1	inconclusive: 11.2 µM [inhibitor, partial curve]	
O=C(OCC(=O)N1CCc2ccccc21)c1c2c(nc3ccccc13)CCCC2	active: 2 µM	
O=C(Nc1cccc(C(F)(F)F)c1)C(=O)N1CCCCC1		inactive: 15%
C/C=C(\C)C(=O)NCCN1C2=NC[C@H](C)N2C[C@@H]1Cc1ccc(OC)cc1		inactive: 10.4%
